Here are results for 22 molecules from publication PMC12136788.

This is one part of the list.

T1: UNK ZnF1-3 (human, UniProt Q9C0B0 31-174)
T1 sequence: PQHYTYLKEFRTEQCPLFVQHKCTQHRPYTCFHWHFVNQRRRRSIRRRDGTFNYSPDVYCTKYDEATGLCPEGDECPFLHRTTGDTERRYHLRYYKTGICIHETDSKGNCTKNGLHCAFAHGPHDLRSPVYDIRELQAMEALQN

B1: 138127219_138128546_1353_CDS_ENSMUSG00000006205_ENSMUST00000006367|mouse|control|control (ssRNA)
RNA: GGGAGUUCUACAGUCCGACGAUCGACGUCAUUGGCAGUGACCACAGACUGUCCGUUGAUGCUGAUGAUGACGUCAUUUUCCUUGAGCCCUCCGGCUUCUGCCGGGGUGUCAGGAAUGACUUCAAUGAUAUAUGCCCCAGAGAGCAACAGAGGAUUGAGCAUCA
B2: 187084372_187086566_2436_3pUTR_ENSMUSG00000039318_ENSMUST00000069652|mouse|control|control (ssRNA)
RNA: GGGAGUUCUACAGUCCGACGAUCCGAUGGCCACUUUCAUCUUGCUCAGCAGGGACAGCAUGGUAUGAAGGCAGCAGACAGACUGUGGUUUGUCCAAAAUGUCUUUUUCCUUCGAAAGCCAAACACUUAGGAGCAGAGACAGUACAACAGAGGAUUGAGCAUCA
B3: chr2:121837063:121837064:+_ENSMUSG00000033411_ENSMUST00000110578|mus_mus|FALSE|FALSE (ssRNA)
RNA: GGGAGUUCUACAGUCCGACGAUCAUAUUAGUCAUUCAUAUAUUCUUAACUACCCAGUCUCUUGAUUUUUGAAGAUUUCACCUACAGUAGAAUAUUACAGAACAAAAUAUAAAUGCAUCUUUUAAAUGAAACUUAACAUGGACUCAACAGAGGAUUGAGCAUCA
B4: 72957518_72958873_763_3pUTR_ENSMUSG00000036698_ENSMUST00000044113|mouse|control|control (ssRNA)
RNA: GGGAGUUCUACAGUCCGACGAUCCAUCAAUAUUCAGCAUCAUUUUCCAAAGAGAAGGUCGGACGGACUGAUGGAAGCCAAACCACACUUCUCUGCCCCCACCCAGAGGGUUGGAACAGCCUUCAGAUGCAGUGAAGAAGGAACCAACAGAGGAUUGAGCAUCA
B5: 80652497_80652617_3157_CDS_ENSMUSG00000035051_ENSMUST00000038166|mouse|control|control (ssRNA)
RNA: GGGAGUUCUACAGUCCGACGAUCGUGGUGGCUCGUGAACAAGUGGAAGCAGACCCCUGAUGCGACUCGGCCAGCUCGGCCUUUCCUCUGCAGAGCGUUGGCCUGAGACACGAACGUGUCCUCUAGACUUUCCAUUCCUUUGCCCAACAGAGGAUUGAGCAUCA
B6: chr18:9257185:9257186:+_ENSG00000101745_ENST00000400020|hu_hu|FALSE|FALSE (ssRNA)
RNA: GGGAGUUCUACAGUCCGACGAUCUUGGAAUUGUUUGGUAUGUUCACAAAUGACAGAAGGCAUGCUACAUCUUCGAACUUCUAUGGUAGGUCUCCCCUCGCUUAUAAUUAGUUUAACAUCUUCUACAGAAGAUGACCUAAGAUGCAACAGAGGAUUGAGCAUCA
B7: chr5:79734569:79734570:+_ENSG00000039319_ENST00000505560|hu_hu|motif|central (ssRNA)
RNA: GGGAGUUCUACAGUCCGACGAUCACUUUCUAUAUCAAUGUAAUUAGAGUUGAAGCUAACCUGUGGAUCAGCUGUAGAAUCGGUAGCACAAGUGAUUGGAACAACGGUAUCUGCUGUGCUGGGUUCACUUUCUAUUGUAUCUGGCAACAGAGGAUUGAGCAUCA
B8: chr16:29586362:29586363:+_ENSMUSG00000038084_ENSMUST00000160597|mus_mus|FALSE|FALSE (ssRNA)
RNA: GGGAGUUCUACAGUCCGACGAUCGCCACCUCCAACAGCAGAUCCCAGUAUGAUAUAUCGAAGUUUUAAGAGUCUUGCAGCUAACCUUGCUGGCCAAAAGUUCCUGCGGGGCUGGUAGCCAUAUUUAAUUGGAGAAAGUUUCAACAACAGAGGAUUGAGCAUCA
B9: chr6:15520614:15520615:+_ENSG00000008083_ENST00000341776|hu_mus|FALSE|FALSE (ssRNA)
RNA: GGGAGUUCUACAGUCCGACGAUCUAGAUAUCUACGUACAAAAACUUGAACAGUUUAAUGCUAAAACAAAAUCAGUUCUCUAAAACCAGAAGAAAUUCUUCUUUAGAGCUAGUGCAAAGACAGCUUGUAUCCUACAGCAAGUACCAACAGAGGAUUGAGCAUCA
B10: chr5:95130247:95130248:+_ENSG00000164292_ENST00000379982|hu_mus|FALSE|FALSE (ssRNA)
RNA: GGGAGUUCUACAGUCCGACGAUCAUGCCUUUGAGCAUCUUGCAGAACCAUUUCUGCCAAUAUAUGCUAUGAGAGAAACUAACUCUGCCUUUUAUCCCAGACACCAUCGUCUCUACAUCUAGGAUAUCUUUGAUGUACAUAAUUCAACAGAGGAUUGAGCAUCA
B11: 68847805_68855150_758_CDS_ENSMUSG00000022332_ENSMUST00000022954|mouse|control|control (ssRNA)
RNA: GGGAGUUCUACAGUCCGACGAUCCCUGAUUUCAUCAUUAUAGUCAGGGAUCAGGAAUUUCUUGAUCUCUUCCAAGGCGUGCCCCAUCCGGGCAUAUGCUUCUGCUGGGGGUGCGAACACUUCAAUGAGCACGUGCAGGUCGUCCAACAGAGGAUUGAGCAUCA
B12: chr14:66974463:66974464:+_ENSMUSG00000022044_ENSMUST00000074523|mus_hu|mus_mus_mus_hu_False|1_68 (ssRNA)
RNA: GGGAGUUCUACAGUCCGACGAUCUUGUAGGACGACUUAUUCAGGGGAUCGGCCAGGAAGCAGGAGCAGAACAGAGACACCAGCGGGAGCUCCUUCAUCUUCUCUUUGUAGGCAGCAAGGGUCAUGUUUCUGGGAUCCUGGUGGCAACAGAGGAUUGAGCAUCA
B13: chr3:98235988:98235989:-_ENSG00000080822_ENST00000341181|hu_mus|FALSE|FALSE (ssRNA)
RNA: GGGAGUUCUACAGUCCGACGAUCCAGGCUGCGGCAGAUACAGGCACAGAGGCCAAUCAACGCCCCAAAGCACAUCAAGCCCAAGCUGACGAAGGGUAAAAGGAACUGGCAGCGCCACAGGUAGGUGCGAAGCAGGUCGAUGCCCAACAGAGGAUUGAGCAUCA
B14: chr10:75830775:75830776:+_ENSG00000035403_ENST00000372755|perfect_dup|motif|central (ssRNA)
RNA: GGGAGUUCUACAGUCCGACGAUCCAUAGUUUCCACUACCUCUGCCACUGUAAGAUAUUCCAAAAUUCCUUUGCAAACCCGGAUAAUUUUACGAACCUCAGCCUCAUCGAAGGUAAGCAGUAGGUCAGAUGUGCCAGAAAGGAUCAACAGAGGAUUGAGCAUCA
B15: chr2:104630212:104630213:-_ENSMUSG00000074994_ENSMUST00000117237|mus_hu|FALSE|FALSE (ssRNA)
RNA: GGGAGUUCUACAGUCCGACGAUCUGUAGUGUUAAAAGUUGAAUCCUGAAGCACCAAAGGUGAAGUGGUAGCAAAGUUUCUAUUGCUGAAGGUGGUGGGAUGCUGAUAAGCAGAGAGAGAUGGUGGAAGUGUUCCAGUGCUUGGCAACAGAGGAUUGAGCAUCA
B16: 9304462_9304582_1663_3pUTR_ENSG00000166471_ENST00000528080|human|control|control (ssRNA)
RNA: GGGAGUUCUACAGUCCGACGAUCAGAGCUAGACUCCGUCUCAAAACAGAAAAAAAAAAAAAAAAAAAAAGAGGAAGAAAAUGUAAAUCUCUUUUUAAGUUUUCCAGUUUAUGCUCUGAAAAAAGCCUAACAUUAACAAAACCUCAACAGAGGAUUGAGCAUCA
B17: chr15:66793332:66793333:-_ENSG00000174444_ENST00000568588|hu_mus|FALSE|FALSE (ssRNA)
RNA: GGGAGUUCUACAGUCCGACGAUCCAUGGGCAGGUUAUAGUUACUCUUGAGGGAAGCAGCCUUCCGCCAAGUGCCAUACAGCUCAUCCAACUUCCGGAAAGCACUCUCCGUCCAGAUGCAGAAACGGCCCACAUGCCCACCAGGCAACAGAGGAUUGAGCAUCA
B18: chr2:168009416:168009417:-_ENSMUSG00000051149_ENSMUST00000088001|perfect_dup|FALSE|FALSE (ssRNA)
RNA: GGGAGUUCUACAGUCCGACGAUCCAUAUGGUUGAGUAGGGUAUCUGUAGGCAAAUAGCGAUUACAGUAGAGGCAUUUGCUAGUAAAAUUGUGUAUUUUCAUAAUGUAGUUAGCUACGGCUGGGACUUUCUCAGCUUUAUGCUCCAACAGAGGAUUGAGCAUCA
B19: chrX:101152592:101152593:-_ENSMUSG00000056537_ENSMUST00000070705|mus_mus|motif|central (ssRNA)
RNA: GGGAGUUCUACAGUCCGACGAUCUUAAGUCUGCAGUAUGACAUCGUACAUAGGGAAAAAGCUUCUUCCUAAAAGAUAGCGGUUAAUAAUCAAACCAGAUUUCAUGACUGACCUUUCAAGGUCUCUUUCUGCAUUAAACAAGGUCAACAGAGGAUUGAGCAUCA
B20: chr19:16406628:16406629:+_ENSMUSG00000024639_ENSMUST00000025541|mus_hu|motif|central (ssRNA)
RNA: GGGAGUUCUACAGUCCGACGAUCGACACUUUGUAAGUCAAAGGGGUAUUCGAUGAUCCCUGUGGUGGGGACUCGAACUCGGAGCACAUCUUGUUGCGUAGGCAGGUAGGCAGGGUCAGCUACGCGGUCCAAGUCAUUAAGAUACAACAGAGGAUUGAGCAUCA
B21: 96404384_96404504_4670_3pUTR_ENSMUSG00000023169_ENSMUST00000088452|mouse|control|control (ssRNA)
RNA: GGGAGUUCUACAGUCCGACGAUCCUCCAUUACAGCUCCACAUUCUUUUCCAGCUGCCUGGGGGCCUAACCCCCACAUCUAAUCCAAUGAAGAAAAAUCCAUUCCGGGUUACAGAGCUUUGGAAUAUGGUCUCCCUGUGACCAGCAACAGAGGAUUGAGCAUCA
B22: chr4:120755967:120755968:-_ENSMUSG00000043207_ENSMUST00000058754|mus_hu|FALSE|FALSE (ssRNA)
RNA: GGGAGUUCUACAGUCCGACGAUCGAUUGCAUCUUUCAUGAAGAACCCCAAAGUCUGUUGAUUGAAGCCAUGUUUUUCUUCUAUCACAAAAGUAUUAUAAAGACUCCAUGGCAAACCAGUCAAUGCACUGAAAAGUGUAGCCAACAACAGAGGAUUGAGCAUCA

For this test, the target named is T1, UNK ZnF1-3. Nature of the test: nsRBNS (natural sequence RNA bind-n-seq); RBNS binding buffer (assumed for nsRBNS): 25 mM Tris pH 7.5, 150 mM KCl, 3 mM MgCl2, 0.01% Triton X-100, 500 ug/ml BSA, 20 U/ml SUPERase-In, 4 C; UNK is unkempt and MSI1 is Musashi-1; names of the RNAs are library labels; protein concentration not given here; high values mean tight binding.
The molecule B1 yielded a binding signal of 0.715 enrichment R.

In turn, B2 gave a binding signal of 0.969 enrichment R.

B3: the binding signal was 0.979 enrichment R.

B4: the binding signal is 2.08 enrichment R.

For the molecule B5, the binding signal came out at 0.885 enrichment R.

Molecule B6 showed a binding signal of 1.02 enrichment R.

With B7, the binding signal was found to be 0.913 enrichment R.

Regarding B8, the binding signal is 1.72 enrichment R.

Consider B9, for which the binding signal stood at 0.812 enrichment R.

For the molecule B10, the binding signal was determined as 0.682 enrichment R.

As to B11, the binding signal was 0.79 enrichment R.

The molecule B12 displayed a binding signal of 1.81 enrichment R.

In turn, B13 registered a binding signal of 1.18 enrichment R.

As for B14, the binding signal came out at 1.26 enrichment R.

On to B15, for which the binding signal was 2.41 enrichment R.

The molecule B16 displayed a binding signal of 1.87 enrichment R.

Molecule B17 yielded a binding signal of 1.23 enrichment R.

For the molecule B18, the binding signal was 2.12 enrichment R.

Consider B19, for which the binding signal came to 0.867 enrichment R.

The molecule B20 yielded a binding signal of 1.23 enrichment R.

As for B21, the binding signal came out at 1.01 enrichment R.

In turn, B22 returned a binding signal of 1.33 enrichment R.
